These results are taken from patent US9023857B2, “Substituted 6-(2-aminobenzylamino)purine derivatives, their use as medicaments and preparations containing these compounds” (Univerzita Palackeho V Olomouci, priority 2009, dated 2015).

SMILES strings stand for the structures. pIC50: −log10 of the molar value.

The first data set has as its target CDK1/cyclin B (Homo sapiens, UniProt P06493). Nature of the data set: CDK inhibition assay, CDK1/cyclin B.
Settings: not given
As usually defined, the pIC50 is the negative decadic logarithm of the IC50, by convention in mol/L. The molecule `COc1cccc(CNc2nc(NCC(C)O)nc3c2ncn3C(C)C)c1N` (centres unmarked) [Compound 166] had a pIC50 of 6.40.

The molecule `CCC(CO)Nc1nc(NCc2cc(OC)ccc2N)c2ncn(C(C)C)c2n1` (centres unmarked) [Compound 182] gave a pIC50 of 6.70.

Molecule `CCC(CO)Nc1nc(NCc2ccccc2N)c2ncn(C3CCCCC3)c2n1` (centres unmarked) [Compound 198] showed a pIC50 of 6.40.

Turning to `CC(C)n1cnc2c(NCc3ccccc3)nc(NC3CCC(O)CC3)nc21` (centres unmarked) [Compound A2144], the pIC50 was 6.22.

The next data set concerns the target CDK9/cyclin T (Homo sapiens, UniProt P50750). Nature of the data set: CDK inhibition assay, CDK9/cyclin T.
Settings: not given
In the case of `COc1cccc(CNc2nc(NCC(C)O)nc3c2ncn3C(C)C)c1N` (centres unmarked) [Compound 166], the pIC50 is 8.70.

With `CCC(CO)Nc1nc(NCc2cc(OC)ccc2N)c2ncn(C(C)C)c2n1` (centres unmarked) [Compound 182], the pIC50 is 9.00.

With `CCC(CO)Nc1nc(NCc2ccccc2N)c2ncn(C3CCCCC3)c2n1` (centres unmarked) [Compound 198], the pIC50 was 7.52.

Take `CC(C)n1cnc2c(NCc3ccccc3)nc(NC3CCC(O)CC3)nc21` (centres unmarked) [Compound A2144]: the pIC50 was 6.22.

The next data set has as its system breast carcinoma MCF7. Nature of the data set: In vitro cytotoxic activity (Calcein AM, 72 hours), MCF7. The conditions noted are these: Homo sapiens, MCF7, 72 h, read-out: Cytotoxicity IC50 MCF7.
For `COc1cccc(CNc2nc(NCC(C)O)nc3c2ncn3C(C)C)c1N` (centres unmarked) [Compound 166], the pIC50 was 4.77.

With `CCC(CO)Nc1nc(NCc2cc(OC)ccc2N)c2ncn(C(C)C)c2n1` (centres unmarked) [Compound 182], the pIC50 was 5.51.

For `CCC(CO)Nc1nc(NCc2ccccc2N)c2ncn(C3CCCCC3)c2n1` (centres unmarked) [Compound 198], the pIC50 was 5.05.

For `CC(C)n1cnc2c(NCc3ccccc3)nc(NC3CCC(O)CC3)nc21` (centres unmarked) [Compound A2144], the pIC50 is 4.62.

A further data set concerns cervical carcinoma cells HELA. Nature of the data set: In vitro cytotoxic activity (Calcein AM, 72 hours), HELA. The note with it: Homo sapiens, read-out: Cytotoxicity IC50 HeLa.
As to `COc1cccc(CNc2nc(NCC(C)O)nc3c2ncn3C(C)C)c1N` (centres unmarked) [Compound 166], the pIC50 was 4.80.

For `CCC(CO)Nc1nc(NCc2cc(OC)ccc2N)c2ncn(C(C)C)c2n1` (centres unmarked) [Compound 182], the pIC50 was 5.38.

On to `CCC(CO)Nc1nc(NCc2ccccc2N)c2ncn(C3CCCCC3)c2n1` (centres unmarked) [Compound 198], for which the pIC50 is 4.85.

In the case of `CC(C)n1cnc2c(NCc3ccccc3)nc(NC3CCC(O)CC3)nc21` (centres unmarked) [Compound A2144], the pIC50 was 4.44.

Turning to `Cn1cnc2c(NCc3ccccc3)nc(NCCO)nc21` [OC], the pIC50 was 3.97.

A further data set has as its system p53-responsive reporter pRGCΔfoslacZ in human melanoma cell line Arn8. The data set is described as follows: p53-dependent transcriptional activity, β-galactosidase reporter in Arn8 cells. The conditions noted are these: concentration inducing maximum of β-galactosidase activity (p53-responsive reporter).
On to `CC(CNc1nc(NCc2ccccc2N)c2ncn(C)c2n1)C(C)(C)O` (centres unmarked) [Compound 12], for which the “Max. β-Gal. Activtity Conc.” value turned out to be 33 µM.

For `CC(C)n1cnc2c(NCc3ccccc3N)nc(NCCC(C)(C)O)nc21` [Compound 110], the “Max. β-Gal. Activtity Conc.” value came out at 29 µM.

As for `COc1cccc(CNc2nc(NCC(C)O)nc3c2ncn3C(C)C)c1N` (centres unmarked) [Compound 166], the “Max. β-Gal. Activtity Conc.” value is 14 µM.

On to `CCC(CO)Nc1nc(NCc2cc(OC)ccc2N)c2ncn(C(C)C)c2n1` (centres unmarked) [Compound 182], for which the “Max. β-Gal. Activtity Conc.” value worked out at 12 µM.

In the case of `CCC(CO)Nc1nc(NCc2ccccc2N)c2ncn(C3CCCCC3)c2n1` (centres unmarked) [Compound 198], the “Max. β-Gal. Activtity Conc.” value came to 19 µM.

As for `Cn1cnc2c(NCc3ccccc3)nc(NCCO)nc21` [OC], the “Max. β-Gal. Activtity Conc.” value stood at 125 µM.

The subject of the next data set is human malignant melanoma G 361. The data set is described as follows: In vitro cytotoxic activity (Calcein AM, 72 hours), G 361. The note with it: G-361, 72 h, read-out: Cytotoxicity IC50 G361.
Take `COc1cccc(CNc2nc(NCC(C)O)nc3c2ncn3C(C)C)c1N` (centres unmarked) [Compound 166]: the pIC50 was 4.77.

Turning to `CCC(CO)Nc1nc(NCc2cc(OC)ccc2N)c2ncn(C(C)C)c2n1` (centres unmarked) [Compound 182], the pIC50 was 4.82.

Consider `CCC(CO)Nc1nc(NCc2ccccc2N)c2ncn(C3CCCCC3)c2n1` (centres unmarked) [Compound 198], for which the pIC50 was 4.96.

With `CC(C)n1cnc2c(NCc3ccccc3)nc(NC3CCC(O)CC3)nc21` (centres unmarked) [Compound A2144], the pIC50 was 4.47.

Turning to `Cn1cnc2c(NCc3ccccc3)nc(NCCO)nc21` [OC], the pIC50 is 3.79.

The subject of the next data set is human T-lymphoblastoid leukaemic cell line CEM. Nature of the data set: In vitro cytotoxic activity (Calcein AM, 72 hours), CEM. The note with it: read-out: Cytotoxicity IC50 CEM.
On to `COc1cccc(CNc2nc(NCC(C)O)nc3c2ncn3C(C)C)c1N` (centres unmarked) [Compound 166], for which the pIC50 was 4.89.

With `CCC(CO)Nc1nc(NCc2cc(OC)ccc2N)c2ncn(C(C)C)c2n1` (centres unmarked) [Compound 182], the pIC50 is 5.14.

Take `CCC(CO)Nc1nc(NCc2ccccc2N)c2ncn(C3CCCCC3)c2n1` (centres unmarked) [Compound 198]: the pIC50 is 5.00.

Take `CC(C)n1cnc2c(NCc3ccccc3)nc(NC3CCC(O)CC3)nc21` (centres unmarked) [Compound A2144]: the pIC50 was 4.70.

As for `Cn1cnc2c(NCc3ccccc3)nc(NCCO)nc21` [OC], the pIC50 was 4.21.

For a further data set, the system named is human erythroleukaemia K562. Nature of the data set: In vitro cytotoxic activity (Calcein AM, 72 hours), K562. The note with it: K562, 72 h, read-out: Cytotoxicity IC50 K-562.
For `COc1cccc(CNc2nc(NCC(C)O)nc3c2ncn3C(C)C)c1N` (centres unmarked) [Compound 166], the pIC50 was 4.62.

As for `CCC(CO)Nc1nc(NCc2cc(OC)ccc2N)c2ncn(C(C)C)c2n1` (centres unmarked) [Compound 182], the pIC50 was 4.68.

As for `CCC(CO)Nc1nc(NCc2ccccc2N)c2ncn(C3CCCCC3)c2n1` (centres unmarked) [Compound 198], the pIC50 is 4.66.

The next data set addresses CDK2/cyclin E (Homo sapiens, UniProt P24941). Nature of the data set: CDK inhibition assay, CDK2/cyclin E.
Settings: not given
On to `COc1cccc(CNc2nc(NCC(C)O)nc3c2ncn3C(C)C)c1N` (centres unmarked) [Compound 166], for which the pIC50 is 7.00.

The molecule `CCC(CO)Nc1nc(NCc2cc(OC)ccc2N)c2ncn(C(C)C)c2n1` (centres unmarked) [Compound 182] gave a pIC50 of 7.00.

`CCC(CO)Nc1nc(NCc2ccccc2N)c2ncn(C3CCCCC3)c2n1` (centres unmarked) [Compound 198] gave a pIC50 of 7.00.

`CC(C)n1cnc2c(NCc3ccccc3)nc(NC3CCC(O)CC3)nc21` (centres unmarked) [Compound A2144] showed a pIC50 of 6.10.

A further data set deals with promyelocytic leukemia HL 60. Nature of the data set: In vitro cytotoxic activity (Calcein AM, 72 hours), HL 60. The conditions noted are these: Homo sapiens, HL-60, 72 h, read-out: Cytotoxicity IC50 HL60.
For `COc1cccc(CNc2nc(NCC(C)O)nc3c2ncn3C(C)C)c1N` (centres unmarked) [Compound 166], the pIC50 is 4.51.

As to `CCC(CO)Nc1nc(NCc2cc(OC)ccc2N)c2ncn(C(C)C)c2n1` (centres unmarked) [Compound 182], the pIC50 was 4.74.

Regarding `CCC(CO)Nc1nc(NCc2ccccc2N)c2ncn(C3CCCCC3)c2n1` (centres unmarked) [Compound 198], the pIC50 is 4.59.

`CC(C)n1cnc2c(NCc3ccccc3)nc(NC3CCC(O)CC3)nc21` (centres unmarked) [Compound A2144]: the pIC50 was 4.29.

Regarding `Cn1cnc2c(NCc3ccccc3)nc(NCCO)nc21` [OC], the pIC50 is 3.91.

The subject of a further data set is human osteogenic sarcoma HOS. The data set is described as follows: In vitro cytotoxic activity (Calcein AM, 72 hours), HOS. The note with it: read-out: Cytotoxicity IC50 HOS.
Regarding `COc1cccc(CNc2nc(NCC(C)O)nc3c2ncn3C(C)C)c1N` (centres unmarked) [Compound 166], the pIC50 was 4.49.

Turning to `CCC(CO)Nc1nc(NCc2cc(OC)ccc2N)c2ncn(C(C)C)c2n1` (centres unmarked) [Compound 182], the pIC50 was 4.96.

`CCC(CO)Nc1nc(NCc2ccccc2N)c2ncn(C3CCCCC3)c2n1` (centres unmarked) [Compound 198]: the pIC50 was 4.80.

Take `CC(C)n1cnc2c(NCc3ccccc3)nc(NC3CCC(O)CC3)nc21` (centres unmarked) [Compound A2144]: the pIC50 is 4.57.

System in the next data set: not listed separately
The data set is described as follows: In vitro cytotoxic activity (Calcein AM, 72 hours), BJ. The note with it: human, BJ normal fibroblasts.
For orientation: IC50 means the concentration that inhibits the measured activity by half. As for `COc1cccc(CNc2nc(NCC(C)O)nc3c2ncn3C(C)C)c1N` (centres unmarked) [Compound 166], the IC50 at 72 h is greater than 167 µM.

As to `CCC(CO)Nc1nc(NCc2cc(OC)ccc2N)c2ncn(C(C)C)c2n1` (centres unmarked) [Compound 182], the IC50 at 72 h was greater than 167 µM.

For the molecule `CCC(CO)Nc1nc(NCc2ccccc2N)c2ncn(C3CCCCC3)c2n1` (centres unmarked) [Compound 198], the IC50 at 72 h is greater than 167 µM.

`CC(C)n1cnc2c(NCc3ccccc3)nc(NC3CCC(O)CC3)nc21` (centres unmarked) [Compound A2144]: the IC50 at 72 h is greater than 167 µM.
